Measurements: a collection of fitness landscapes (doi:10.1016/j.celrep.2020.107928)
Whole data set: some 81,000 sequences, median “one-hybrid fitness for binding parS DNA” near -0.17, cut for the highest 2% near 0.51. The list shows a part of the results.

B1: Caulobacter ParB omega fusion; a variant is named by its letters at X, in order, B8GW30 (parent)
chain: MESVVVGEPGMSEGRRGLGRGLSALLGEVDAAPAQAPGEQLGGSREAPIEILQRNPDQPRRTFREEDLEDLSNSIREKGVLQPILVRPSPDTAGEYQIVAGERAWRAAQRAGLKTVPIMVRELDDLAVLEIGIIENVQRADLNVLEEALSYKVLMEKFERTQENIAQTIGKSXSHVANXMRLLXLPDEVQSYLVSGELTAXHARAIAAAADPVALAKQIIEGGLSVRETEALARKAPNLSAGKSKGGRPPRVKDTDTQALESDLSSVLGLDVSIDHRGSTGTLTITYATLEQLDDLCNRLTRGI

Variants of: B1
Experiment: one-hybrid fitness for binding parS DNA (scaled: cognate 1, non-cognate 0); higher = stronger binding
Conditions: with parS DNA site
Summary of the method: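 Caulobacter ParB libraries with four specificity codons randomised were screened by bacterial one-hybrid selection in the E. coli USO strain, using a HIS3 reporter whose site lies 19 bp from the promoter. Selection ran for 48 hours at 37°C on M9 lacking histidine, with 0.1 mM IPTG and 5 mM 3-AT. Plasmids were Illumina-sequenced before and after selection, three replicate libraries were pooled, and variants with under 10 reads were dropped. Fitness is the log change in each variant's read ratio to wild type, rescaled against the cognate and non-cognate sites.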

| Variant | one-hybrid fitness for binding parS DNA |
| --- | --- |
| KRNK | ≤ 0.2 |
| IRNY | ≤ 0.2 |
| QEKV | ≤ 0.2 |
| ASTN | ≤ 0.2 |
| QSFH | ≤ 0.2 |
| TSGV | ≤ 0.2 |
| RMVW | 0.23 |
| KHWT | ≤ 0.2 |
| RPTG | ≤ 0.2 |
| DLFG | ≤ 0.2 |
| NIPN | ≤ 0.2 |
| SHSF | ≤ 0.2 |
| RSYS | 1.01 |
| SKTQ | ≤ 0.2 |
| RACN | 0.41 |
| LCKT | ≤ 0.2 |
| DTFT | ≤ 0.2 |
| CTNS | ≤ 0.2 |
| NNVL | ≤ 0.2 |
| PFIS | ≤ 0.2 |
| NVLC | ≤ 0.2 |

| Variant | one-hybrid fitness for binding parS DNA |
| --- | --- |
| AFCR | ≤ 0.2 |
| CALS | ≤ 0.2 |
| ECNV | ≤ 0.2 |
| DTPG | ≤ 0.2 |
| QTYS | ≤ 0.2 |
| PQKG | ≤ 0.2 |
| REVE | ≤ 0.2 |
| KREG | ≤ 0.2 |
| HWKA | ≤ 0.2 |
| SRGI | ≤ 0.2 |
| PHKW | ≤ 0.2 |
| GVTM | ≤ 0.2 |
| DPRP | ≤ 0.2 |
| PHWS | ≤ 0.2 |
| NTER | ≤ 0.2 |
| GRDD | ≤ 0.2 |
| LKLG | ≤ 0.2 |
| KRYR | ≤ 0.2 |
| LHKG | ≤ 0.2 |
| KLGY | ≤ 0.2 |
| IEHR | ≤ 0.2 |

| Variant | one-hybrid fitness for binding parS DNA |
| --- | --- |
| KNAT | ≤ 0.2 |
| QTYC | ≤ 0.2 |
| SCCS | ≤ 0.2 |
| KYLW | ≤ 0.2 |
| LMNR | ≤ 0.2 |
| QHVV | ≤ 0.2 |
| VPGR | ≤ 0.2 |
| QVLE | ≤ 0.2 |
| NVAG | ≤ 0.2 |
| GDTF | ≤ 0.2 |
| PRHG | ≤ 0.2 |
| SRMV | ≤ 0.2 |
| HRPW | ≤ 0.2 |
| YTRH | ≤ 0.2 |
| QYKS | ≤ 0.2 |
| DCFS | ≤ 0.2 |
| LPDT | ≤ 0.2 |
| RATH | 0.255 |
| SLWC | ≤ 0.2 |
| RKNG | 0.907 |
| WTLR | ≤ 0.2 |

| Variant | one-hybrid fitness for binding parS DNA |
| --- | --- |
| RWGE | ≤ 0.2 |
| AYKG | ≤ 0.2 |
| RWPC | 0.337 |
| DVWY | ≤ 0.2 |
| DHAD | ≤ 0.2 |
| DKQS | ≤ 0.2 |
| DYIA | ≤ 0.2 |
| PAIT | ≤ 0.2 |
| CHFG | ≤ 0.2 |
| ISGR | ≤ 0.2 |
| KMSN | 0.216 |
| QPRG | ≤ 0.2 |
| VQGR | ≤ 0.2 |
| FGLS | ≤ 0.2 |
| HNMC | ≤ 0.2 |
| LTPY | ≤ 0.2 |
| RIPG | 0.703 |
| PNMA | ≤ 0.2 |
| AGSE | ≤ 0.2 |
| ALDR | ≤ 0.2 |
| KTRP | ≤ 0.2 |
